The campaign covered roughly 39,000 compounds. About 220 (0.56%) showed activity. This is one part of the list.
These molecules were tested on Escherichia coli K-12 BW25113 (assay: relative growth (OD600 normalised to plate interquartile mean) (fraction); higher = less growth inhibition, active = 0.2 or less). Settings: 50 µM; LB; incubation time: overnight (16-24 h).
C[C@H](CO)N1C[C@H](C)[C@H](CN(C)S(C)(=O)=O)Oc2ccc(NS(=O)(=O)c3cccs3)cc2CC1=O was tested, and the relative growth was inactive: 0.975. In the case of N[C@@H]1CC(=O)N(c2ccc(F)cc2)C1, the relative growth is reported as inactive: 0.99. For C[C@H]1CN([C@@H](C)CO)C(=O)Cc2cc(NC(=O)Nc3ccc(C#N)cc3)ccc2O[C@H]1CN(C)S(=O)(=O)c1ccc(Oc2ccccc2)cc1, the relative growth was inactive: 1.03. O=C(CCCCCNC(=O)OCc1ccc(CN(C(=O)Nc2ccccc2)[C@@H](Cc2ccccc2)Cn2cc(-c3ccccn3)nn2)cc1)NO was tested, and the relative growth was inactive: 0.983. With C[C@@H]1CCCCO[C@H](CN(C)C(=O)C2CCCCC2)[C@@H](C)CN([C@@H](C)CO)C(=O)c2cc(NC(=O)Nc3ccc(C(F)(F)F)cc3)ccc2O1 the relative growth was inactive: 0.989. With COc1ccc(CN2C[C@H](C)[C@@H](OC)CN(C)C(=O)c3cc(NC(=O)c4nc5ccccc5s4)ccc3OC[C@@H]2C)cc1 the relative growth was inactive: 1.01. For C[C@@H]1CCCCO[C@@H](CN(C)C(=O)CCC(F)(F)F)[C@@H](C)CN([C@H](C)CO)C(=O)c2cc(NC(=O)Cc3ccccc3)ccc2O1, the relative growth was inactive: 0.97. For CO[C@H]1CN(C)C(=O)c2ccc(NS(=O)(=O)c3cn(C)cn3)cc2OC[C@@H](C)N(Cc2cccc(F)c2)C[C@H]1C, the relative growth was inactive: 0.97. For C[C@H]1CN([C@@H](C)CO)C(=O)c2cc(NS(=O)(=O)c3cn(C)cn3)ccc2O[C@H]1CN(C)C(=O)Nc1ccc(F)cc1, the relative growth was inactive: 0.966. C[C@@H]1CCCCO[C@@H](CN(C)Cc2ccccc2)[C@@H](C)CN([C@@H](C)CO)C(=O)c2cc(NC(=O)Nc3ccc(F)cc3)ccc2O1 was tested, and the relative growth was inactive: 1.04. For O=C(CN1CCOCC1)N[C@@H]1CC[C@H](CCn2cc(C3CCCC3)nn2)O[C@@H]1CO, the relative growth was inactive: 0.991. O=C(Nc1ccc(C(F)(F)F)cc1)Nc1ccc2c(c1)[C@@H]1C[C@@H](CC(=O)N3CCc4ccccc4C3)O[C@@H](CO)[C@@H]1O2 was tested, and the relative growth was inactive: 0.987. In the case of O=C(CCCCCNC(=O)OCc1ccc(CO[C@H]2C[C@@H](c3ccccc3)C=C(C(=O)N3CCN(Cc4ccccc4)CC3)O2)cc1)NO, the relative growth is reported as inactive: 0.918. In the case of C[C@H](O)C#Cc1ccc2c(c1)O[C@@H](CN(C)C(=O)Nc1ccccc1)[C@@H](C)CN([C@H](C)CO)S2(=O)=O, the relative growth is reported as inactive: 1.02. COc1ccc(NC(=O)Nc2ccc3c(c2)C(=O)N([C@@H](C)CO)C[C@@H](C)[C@@H](CN(C)CC2CCCCC2)OCCCC[C@H](C)O3)cc1 was tested, and the relative growth was inactive: 0.949. For C[C@@H]1CN([C@@H](C)CO)C(=O)Cc2cc(NC(=O)Nc3ccc(F)cc3)ccc2O[C@H]1CN(C)C(=O)Nc1cccc2ccccc12, the relative growth was inactive: 0.981.

— the supplement of paper PMC9446081
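Note: static incubation at 37 °C against the wild-type strain, values averaged over two biological replicates.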
